# Assay results from PubChem BioAssay AID686979 (National Center for Advancing Translational Sciences (NCATS), 2013).
# Screen size: about 420,000 compounds; about 50,000 (12%) were called active. The inconclusive results got no clear call from the source; some entries with a clear call stand among them for comparison. Calls follow the shape of the dose curve; as a rule, active = well fitted inhibition curve with a large enough effect; inconclusive = small, poorly fitted or top-dose-only effect; inactive = flat fitted curve, though single readings scatter. Potencies of inconclusive entries are left out as doubtful fits.
# Experiment: qHTS for Inhibitors of human tyrosyl-DNA phosphodiesterase 1 (TDP1): qHTS in cells in presence of CPT; also: nearly all actives have a fitted effect of over 55% in size
# Settings: chicken DT40 Tdp1-/-;hTDP1 cells + 20 nM CPT, ATP luminescence, 48 h; activity change, negative = growth inhibition: at 46.2 µM (top of the series) unless noted
# Procedure, shortened: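 Chicken DT40 Tdp1-/- cells complemented with human TDP1, 400 cells/well, exposed to compounds plus 20 nM camptothecin for at least 48 h at 37 C; viability read as ATP content by CellTiter-Glo luminescence.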
# % is scaled to controls: 0 for no effect and ±100 for the full control effect; potency is read from the fitted curve at half-maximal effect; tags tell the direction and shape of the fitted curve.
Compound,Potency,"activity change, negative = growth inhibition"
CCOc1ccc(NC(=S)NNC(=S)Nc2cccc(C(F)(F)F)c2)cc1,"inconclusive [inhibitor, single point]",
O=C(Cc1ccccc1F)NC1CCSc2ccccc21 (stereo unspecified),"inconclusive [inhibitor, single point]",
CC(CCc1ccccc1)NCC(O)c1ccc(O)c(C(N)=O)c1 (stereo unspecified),"inconclusive [inhibitor, single point]",
COc1ccc(CC(=O)Nc2nnc(C(C)(C)C)s2)cc1OC,"inconclusive [inhibitor, single point]",
COc1cccc(NC(=O)c2oc3ccccc3c2NC(=O)Cc2cccc(C)c2)c1,active: 23.1 µM,
CN(C(=O)C(C)(C)C)c1ccc(OCC(=O)N2CCc3ccccc3C2)cc1,"inconclusive [inhibitor, single point]",
COc1cccc(/C=C/C(=O)NCCc2ccc(OC)c(OC)c2)c1,"inconclusive [inhibitor, single point]",
CCC(=O)N/C(=N/c1nc(C)cc(C)n1)Nc1ccc(C)cc1,"inconclusive [inhibitor, single point]",
COC(=O)c1ccc(Cl)cc1NC(=O)N1CCC(CN2CCC(C)CC2)CC1,"inconclusive [inhibitor, single point]",
CC1(C(=O)NS(=O)(=O)c2ccccc2Cl)CCN1C(=O)c1cccc(F)c1 (stereo unspecified),inactive,
O=C(NCc1ccc(Cl)cc1)c1cc(-c2ccc(F)cc2)on1,inactive,
Cc1nc2ccccc2c2c1CC(C(C)(Cl)Br)O2 (stereo unspecified),active: 6.51 µM,
O=C(CCN1C(=O)c2cccc3cccc(c23)C1=O)NCc1cccnc1,inactive,
Cc1ccc(S(=O)(=O)N2CCOCC2)cc1NC(=O)c1cc(-c2ccccn2)nc2ccccc12,"inconclusive [inhibitor, single point]",
O=C(COc1ccc(Cl)cc1Cl)c1ccc[nH]1,inactive,
O=Cc1cc(N=Nc2ccccc2Cl)ccc1O,active: 20.6 µM,
NS(=O)(=O)c1cccc(NC(=O)c2cccc(-c3ccc(O)cc3)c2)c1,"inconclusive [inhibitor, partial curve, poor fit]",
C[C@H]1CN(c2ccc(Br)cc2)C(=O)[C@@H]1CC(=O)Nc1ccc(Br)cc1,"inconclusive [inhibitor, single point]",
CC1(C(=O)NCc2ccc(C(F)(F)F)cc2)CCN1C1Cc2ccccc2C1 (stereo unspecified),"inconclusive [inhibitor, single point]",
CCNC(=O)CC1S/C(=N/N=C(\C)c2ccccc2)NC1=O (stereo unspecified),"inconclusive [inhibitor, single point]",
CCN1CCCC1CNC(=O)c1cc(OC)c(OC)c(OC)c1 (stereo unspecified),inactive,
COc1ccc(CCNc2cc(-c3ccccc3)nc3ncnn23)cc1,active: 23.1 µM,
CSc1ccccc1NC(=O)CO/N=C(\C)c1cc2ccccc2o1,"inconclusive [inhibitor, full curve]",
Cc1cc2c(nn1)CCC/C2=N\O,inactive,

Compound,Potency,"activity change, negative = growth inhibition"
Cc1cc(OC(C)C(=O)N2CCN(c3ccc(F)cc3)CC2)c2c(C)c(C)c(=O)oc2c1 (stereo unspecified),"inconclusive [inhibitor, single point]",
COc1ccccc1C(=O)Nc1ccc(C(=O)Nc2ccccc2C(=O)O)cc1,"inconclusive [inhibitor, single point]",
CN(Cc1ccccc1)C1=CC(=[N+]2CCCC2)CC(C)(C)C1,active: 0.326 µM,
Cc1ccccc1OCC(=O)N(Cc1ccc(C(C)C)cc1)C1CCS(=O)(=O)C1 (stereo unspecified),"inconclusive [inhibitor, single point]",
CCn1cc([N+](=O)[O-])c(C(=O)N2CCCCCC2)n1,inactive,
CC1CC(C)CN(S(=O)(=O)c2ccc(NC(=O)CCNC(=O)c3ccc([N+](=O)[O-])cc3)cc2)C1 (stereo unspecified),"inconclusive [inhibitor, single point]",
CCCSC(=O)N(CC)CC(=O)Nc1c(CC)cccc1CC,inactive,
CCOc1ccccc1NC(=O)COC(=O)c1ccccc1SCC(=O)N1CCCC1,"inconclusive [inhibitor, full curve, poor fit]",
CC12CCC(/C(=C/NNc3ccc([N+](=O)[O-])cc3[N+](=O)[O-])C1=O)C2(C)C (stereo unspecified),active: 18.4 µM,
CS(=O)(=O)Nc1ccc(C(=O)Nc2ccccc2Sc2ccccc2)cc1,"inconclusive [inhibitor, partial curve]",
COc1ccc(CN2CCC[C@]3(N[C@H](c4ccccc4)[C@@H]4C(=O)N(Cc5ccccc5)C(=O)[C@@H]43)C2=O)cc1,"inconclusive [inhibitor, single point]",
COc1ccc(-c2c(C)nn3c(NC4CCCC4)cc(C)nc23)cc1OC,"inconclusive [inhibitor, single point]",
COC(=O)c1nn(-c2ccccc2)c(Cl)c1/C=N/OC(=O)c1ccc(Cl)c(Cl)c1,"inconclusive [inhibitor, single point]",
Cc1cccc(Nc2cc(=O)n(C)c(=O)[nH]2)c1,inactive,
Cc1cc(F)ccc1S(=O)(=O)Nc1ccccc1C(=O)NCc1cccnc1,inactive,
CCOC(=O)Cc1[nH]nc2c1C(c1ccsc1)C(C#N)=C(N)O2 (stereo unspecified),"inconclusive [inhibitor, single point]",
CC(=O)c1ccc(OC(C)C(=O)Nc2cccc(S(=O)(=O)NCc3ccco3)c2)cc1 (stereo unspecified),"inconclusive [inhibitor, single point]",
CCOC(=O)c1[nH]c(C)c(C(=O)N2CCc3ccccc32)c1C,active: 0.82 µM,
CSc1ccc(CN(C)C(=O)C23CC4CC(CC(Cl)(C4)C2)C3)cc1,"inconclusive [inhibitor, partial curve]",
N#Cc1c(/N=C/c2ccccc2)oc(-c2ccccc2)c1-c1ccccc1,,inconclusive: -33.5% [inhibitor]
COc1cccc(C2Nc3ccccc3-c3nnc(SCc4ccccc4)nc3O2)c1OC (stereo unspecified),"inconclusive [inhibitor, single point]",
Cc1c(C(=O)N2CCOCC2)sc(NC(=O)C(C)C)c1C#N,inactive,
CC(C)C(=O)Nc1nnc(SCC(=O)N2C(C)CCCC2C)s1 (stereo unspecified),inactive,
O=Cc1c(N2CCC3(CC2)OCCO3)nc2ccccn2c1=O,inactive,

Compound,Potency,"activity change, negative = growth inhibition"
O=C(CSc1ccc2ccccc2c1)NC1CCCc2ccccc21 (stereo unspecified),inactive,
COc1ccc(S(N)(=O)=O)cc1N(C)S(=O)(=O)c1ccccc1,"inconclusive [inhibitor, single point]",
Cc1[nH]n(-c2nc(-c3cccc([N+](=O)[O-])c3)cs2)c(=O)c1C,"inconclusive [inhibitor, partial curve]",
O=C(COc1ccc(Cl)cc1[N+](=O)[O-])N1CCCCC1,inactive,
COCc1c(C(=O)N2CCN(Cc3ccc4c(c3)OCO4)CC2)oc2ccccc12,"inconclusive [inhibitor, partial curve, poor fit]",
CCOC(=O)C1=C(CS(=O)(=O)c2ccc(C)c(C)c2)NC(=O)NC1c1ccccc1OCC (stereo unspecified),"inconclusive [inhibitor, single point]",
CC1(C)Cc2c(C#N)c(NCCO)nc(-c3ccco3)c2CO1,inactive,
CC(Cc1ccco1)NC(=O)c1cccc(S(=O)(=O)N(C)C)c1 (stereo unspecified),inactive,
CC(C)(C)c1ccccc1N=Cc1ccc2ccccc2n1,"inconclusive [inhibitor, single point]",
Cc1c(C(=O)O)oc2c1C(=O)CC(C)(C)C2,inactive,
CCOC(=O)C1=CCN(S(=O)(=O)c2ccccc2C)C1c1ccc(F)cc1 (stereo unspecified),"inconclusive [inhibitor, single point]",
CCOC(=O)C(NC(C)=O)(Nc1ccc(S(=O)(=O)Nc2ncccn2)cc1)C(F)(F)F (stereo unspecified),"inconclusive [inhibitor, single point]",
C=C(C)Cn1c(C(C)NC(=O)CCC)nc2ccccc21 (stereo unspecified),"inconclusive [inhibitor, partial curve, poor fit]",
CCCCCCSc1cc(-c2nc3ccc(Cl)cn3c2NCCCC)ccc1OC,"inconclusive [inhibitor, single point]",
CCN1C(=O)[C@H]2[C@@H](c3ccc(-c4cccc(Cl)c4)c(OC)c3)N[C@@](Cc3ccccc3)(C(=O)OC)[C@H]2C1=O,"inconclusive [inhibitor, single point]",
CCN(Cc1cccc(F)c1)C(=O)c1ccc2ccccc2n1,inactive,
O=C1c2ccccc2C(=O)N1/N=C/c1ccc(O)c(O)c1,inactive,
O=C(Nc1ccc(N2CCOCC2)c(S(=O)(=O)Nc2ccccc2Cl)c1)c1ccccc1,"inconclusive [inhibitor, single point]",
COc1ccc(N(CC(=O)N2CCN(c3cccc(OC)c3)CC2)S(=O)(=O)c2c(C)noc2C)cc1,"inconclusive [inhibitor, single point]",
CCCN(CC(=O)Nc1ccccc1C)C(=O)c1ccc2ccccc2n1,"inconclusive [inhibitor, single point]",
CCC(=O)N(C)C[C@H]1Oc2cc(Br)ccc2S(=O)(=O)N([C@@H](C)CO)C[C@H]1C,inactive,
CCS(=O)(=O)Nc1ccc(C2=NN(C(=O)c3ccco3)C(c3ccc(C)cc3)C2)cc1 (stereo unspecified),"inconclusive [inhibitor, single point]",
Clc1ccc2[nH]c3c(c2c1)CCc1cn[nH]c1-3,"inconclusive [inhibitor, single point]",
